Experimental data as given in paper PMC4336329 (PLoS ONE, 2015).
The whole screen tested about 310,000 compounds, of which about 2,200 (0.71%) showed an effect of 50% or more. Effects have a minus sign here. Some of the results follow.

The compounds below were run against human ether-à-go-go-related gene (hERG) potassium channel (human, UniProt Q12809) (assay: primary screen, population patch clamp on CHO cells stably expressing hERG).
Chain of human ether-à-go-go-related gene (hERG) potassium channel (Q12809 whole entry, looked up): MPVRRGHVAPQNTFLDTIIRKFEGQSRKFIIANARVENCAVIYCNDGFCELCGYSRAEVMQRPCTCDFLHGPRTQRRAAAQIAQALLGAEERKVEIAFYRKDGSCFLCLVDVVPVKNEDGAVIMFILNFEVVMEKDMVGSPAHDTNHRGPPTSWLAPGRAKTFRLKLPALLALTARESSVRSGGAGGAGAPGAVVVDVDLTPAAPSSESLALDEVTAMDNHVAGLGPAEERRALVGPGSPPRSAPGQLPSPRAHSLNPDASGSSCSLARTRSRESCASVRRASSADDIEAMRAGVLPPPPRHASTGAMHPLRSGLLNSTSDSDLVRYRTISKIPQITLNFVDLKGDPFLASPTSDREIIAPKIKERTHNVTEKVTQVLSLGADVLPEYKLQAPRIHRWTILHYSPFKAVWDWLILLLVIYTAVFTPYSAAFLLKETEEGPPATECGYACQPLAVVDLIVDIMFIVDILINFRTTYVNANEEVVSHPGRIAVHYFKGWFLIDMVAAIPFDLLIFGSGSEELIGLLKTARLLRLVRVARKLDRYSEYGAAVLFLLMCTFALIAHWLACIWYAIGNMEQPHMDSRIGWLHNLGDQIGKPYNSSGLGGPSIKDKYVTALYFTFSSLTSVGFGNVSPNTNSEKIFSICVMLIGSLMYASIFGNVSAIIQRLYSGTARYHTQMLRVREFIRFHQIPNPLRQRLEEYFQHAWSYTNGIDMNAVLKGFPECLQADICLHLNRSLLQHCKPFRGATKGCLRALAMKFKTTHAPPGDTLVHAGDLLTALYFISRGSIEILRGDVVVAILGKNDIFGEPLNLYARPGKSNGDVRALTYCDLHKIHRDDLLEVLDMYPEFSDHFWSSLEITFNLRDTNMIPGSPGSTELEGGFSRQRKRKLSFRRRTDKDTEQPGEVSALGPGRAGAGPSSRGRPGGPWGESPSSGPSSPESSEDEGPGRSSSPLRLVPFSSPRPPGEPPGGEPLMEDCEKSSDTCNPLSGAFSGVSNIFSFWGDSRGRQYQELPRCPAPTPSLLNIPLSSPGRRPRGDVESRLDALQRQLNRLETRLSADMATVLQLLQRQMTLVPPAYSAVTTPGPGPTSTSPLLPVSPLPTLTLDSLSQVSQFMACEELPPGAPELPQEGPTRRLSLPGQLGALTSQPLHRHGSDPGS

First: COC(=O)c1ccc(/C=C2/SC(=S)N(CCC(=O)N3CCOCC3)C2=O)cc1
Second: CC(=O)Oc1ccc(C(=O)Nc2ccc(S(=O)(=O)N3CCOCC3)cc2)cc1
The “hERG current change (%, negative = inhibition) at 1uM” value of the first is higher: 20.9% for the first, 14.3% for the second.

Compared with `COC(=O)[C@H](CC(C)C)NC(=O)Nc1cccc(Br)c1`, `O=C(NCc1cccs1)Nc1cccc(Cl)c1` is higher in “hERG current change (%, negative = inhibition) at 1uM” value: 7.34% for the first, 11.3% for the second.

Compared with `Brc1ccc(-c2nnc3sc(CN4CCC5(CC4)OCCO5)cn23)cc1`, `CCSc1nnc(-c2ccc(S(=O)(=O)N3CCCC3)cc2)n1C` is lower in “hERG current change (%, negative = inhibition) at 1uM” value: 9.64% for the first, 9.02% for the second.

Going from `Cc1ccc(S(=O)(=O)Nc2c(Cl)c(Cl)c(O)c3ccccc23)cc1` to `Cc1ccc(S(=O)(=O)Nc2cc(Cl)c(O)c3ncccc23)cc1`, the “hERG current change (%, negative = inhibition) at 1uM” value falls from 14.1% to 11%.

Going from `CCCCn1c(N)c(-c2nc3ccccc3s2)c2c([N+](=O)[O-])nn(CC)c(=O)c21` to `CCOc1cccc(-c2cc(-c3n[nH]c(=S)n3CC)c3ccccc3n2)c1`, the “hERG current change (%, negative = inhibition) at 1uM” value rises from 10.4% to 11.1%.

Compared with `O=C(CCc1nc2ccccc2c(=O)[nH]1)NCc1ccccn1`, `COc1ccc2cc(C(=O)NCCc3ccccc3)[nH]c2c1` is lower in “hERG current change (%, negative = inhibition) at 1uM” value: 19.7% for the first, 5.84% for the second.

Compared with `O=C(NC(Cc1c[nH]c2ccccc12)c1nnc2n1CCCCC2)c1ccccc1Cl` (centres unmarked), `CC1CCN(c2nnc(-c3ccccc3)c3ccccc23)CC1` is lower in “hERG current change (%, negative = inhibition) at 1uM” value: 15.6% for the first, 6.37% for the second.

Going from `CC(C)N(Cc1ccccc1)C(=O)CN1C(=O)NC2(CCCCCC2)C1=O` to `CCOC(=O)C1(Cc2ccccc2)CCN(Cc2cccc3nccnc23)CC1`, the “hERG current change (%, negative = inhibition) at 1uM” value falls from 11.7% to -10.3%.

Compared with `COCCOC(=O)c1c(NC(=O)CN2CCCc3ccccc32)sc(C(N)=O)c1C`, `COc1cc(CNC2CCCc3ccccc32)cc(OC)c1OC.O=C(O)C(=O)O` (centres unmarked) is lower in “hERG current change (%, negative = inhibition) at 1uM” value: 7.29% for the first, -4.7% for the second.

Compared with `Cc1ccc(S(=O)(=O)NCc2c(-c3ccccc3)c3cc(Cl)ccc3[nH]c2=O)cc1`, `Cc1ccc(S(=O)(=O)NCc2ccc(/C=C(/C#N)C(=O)NCc3ccccc3)o2)cc1` is higher in “hERG current change (%, negative = inhibition) at 1uM” value: -0.67% for the first, 9.29% for the second.

Going from `COc1ccc(NC(=O)CC2C(=O)N(c3ccc(F)cc3)C(=S)N2NC(=O)c2ccccc2)cc1` (centres unmarked) to `COc1ccc(N2CCN(CC(=O)Nc3ccccc3C(=O)NCc3ccccc3)CC2)cc1`, the “hERG current change (%, negative = inhibition) at 1uM” value rises from -5.38% to 1.11%.

Compared with `CCOC(=O)c1ccc(NC(=S)NN2CCN(C)CC2)cc1`, `COC(=O)c1ccc(N2CCN(C)CC2)c(NC(=O)COc2ccc(C)cc2)c1` is lower in “hERG current change (%, negative = inhibition) at 1uM” value: -0.88% for the first, -1.2% for the second.

First: COc1cc(/C=N/NC(=O)c2cn(-c3cccc(C)n3)cn2)ccc1O
Second: COc1ccc(/C=N/NC(=O)c2cccnc2)cc1CSc1ccccn1
The “hERG current change (%, negative = inhibition) at 1uM” value of the first is higher: 11.6% for the first, 4.38% for the second.

First: CN1CCc2c(sc(/N=C/c3cccs3)c2C(N)=O)C1
Second: CC1CCN(c2ccc(/C=N/n3nnnc3N)cc2[N+](=O)[O-])CC1
The “hERG current change (%, negative = inhibition) at 1uM” value of the first is lower: 3.2% for the first, 8.79% for the second.

Compared with `O=C(C1CCCCC1)N1CCN(c2nc(-c3ccc(F)cc3)cs2)CC1`, `Cc1noc(C)c1S(=O)(=O)N1CCC(C(=O)N2CCN(c3ccccc3Cl)CC2)CC1` is lower in “hERG current change (%, negative = inhibition) at 1uM” value: 11.4% for the first, 7.87% for the second.

Going from `CCOCCCNC(=O)Cn1cnc2c(cnn2-c2ccc(C)c(C)c2)c1=O` to `COCCCNC(=O)CS(=O)(=O)Cc1nc(-c2cccc(OC)c2)oc1C`, the “hERG current change (%, negative = inhibition) at 1uM” value rises from 11% to 11.3%.

Compared with `CCC(C)(C)n1nnnc1C(c1ccccc1)N1CCN(Cc2ccccc2)CC1` (centres unmarked), `O=C(NCC(c1cccnc1)N1CCN(c2ccccc2F)CC1)OCc1ccccc1` (centres unmarked) is higher in “hERG current change (%, negative = inhibition) at 1uM” value: 4.01% for the first, 11.5% for the second.

Compared with `Cc1ccccc1-c1nc(CS(=O)(=O)CC(=O)NCc2ccc(F)cc2)c(C)o1`, `Cc1ccc2c(=O)cc(C(=O)NCCc3ccc(S(N)(=O)=O)cc3)oc2c1C` is higher in “hERG current change (%, negative = inhibition) at 1uM” value: 16% for the first, 16.8% for the second.

First: CCOC(=O)N1CCC(NC(=O)C2CCN(S(=O)(=O)c3c(C)noc3C)CC2)CC1
Second: Cc1nn(-c2ccc(F)cc2)c2sc(C(=O)OCC(=O)N3CCC(C)CC3)cc12
The “hERG current change (%, negative = inhibition) at 1uM” value of the first is higher: 6.56% for the first, -1.89% for the second.

Compared with `CCN1CCCC1CNC(=O)C(=O)NC(C)C` (centres unmarked), `CCN1CCCC1CNC(=O)CSc1cc(=O)n(C)c2cc(Cl)ccc12` (centres unmarked) is lower in “hERG current change (%, negative = inhibition) at 1uM” value: 7.17% for the first, -1.28% for the second.

Going from `Cc1ccnc2nc(C(=O)Nc3nccs3)nn12` to `COC(=O)C(C)Oc1ccc(-c2nccc(-c3ccccn3)n2)cc1` (centres unmarked), the “hERG current change (%, negative = inhibition) at 1uM” value falls from 13% to 0.304%.

Compared with `O=c1cc(C(F)(F)C(F)F)oc2ccccc12`, `CC1=CCn2c(=O)c3ccccc3c(=O)n2C1` is lower in “hERG current change (%, negative = inhibition) at 1uM” value: 14% for the first, 11.9% for the second.

Compared with `O=C1C2CCCN2C(c2ccco2)N1c1ccc(F)cc1` (centres unmarked), `Cn1cccc1Cc1nnc(SCC(N)=O)n1-c1ccc(F)cc1` is lower in “hERG current change (%, negative = inhibition) at 1uM” value: 6.49% for the first, 4.35% for the second.

Going from `COc1ccccc1CNC(=O)COC(=O)Cc1c(Cl)cccc1Cl` to `COc1ccccc1NC(=O)CC(c1ccc(F)cc1)c1ccco1` (centres unmarked), the “hERG current change (%, negative = inhibition) at 1uM” value falls from 8.67% to 7.32%.

First: O=c1cc(O)c2c(=O)n(-c3ccccc3)c3c(c2o1)CCCCC3
Second: N#Cc1c2n(c(=S)n(-c3ccccc3[N+](=O)[O-])c1=O)CCCCC2
The “hERG current change (%, negative = inhibition) at 1uM” value of the first is higher: 16.5% for the first, -2.02% for the second.

Going from `N#Cc1nc(-c2ccccc2F)oc1NCc1ccccc1` to `N#CCSc1nnc(-c2ccccc2O)n1Cc1ccccc1`, the “hERG current change (%, negative = inhibition) at 1uM” value rises from 9.28% to 16.9%.

Compared with `COc1ccc(-c2[nH]ncc2CNCCn2cccn2)c(F)c1`, `COc1cccc(-c2ccc(C#N)c(SCC(=O)NCCc3ccc(Cl)cc3)n2)c1` is higher in “hERG current change (%, negative = inhibition) at 1uM” value: -4.75% for the first, 4.37% for the second.

Compared with `O=C(CSCc1ccccc1)N1CCN(c2cccc(C(F)(F)F)c2)CC1`, `O=C(CSCc1ccccc1)N1CCN(S(=O)(=O)c2cccc(F)c2)CC1` is higher in “hERG current change (%, negative = inhibition) at 1uM” value: 9.23% for the first, 21.6% for the second.

Compared with `COc1ccc(-n2c(Cc3cccn3C)nnc2SCC(=O)Nc2ccc3c(c2)OCO3)cc1`, `COc1ccc(CN(C(=O)Cn2nnc(-c3ccc(C)o3)n2)C(C(=O)NCC2CCCO2)c2ccco2)cc1` (centres unmarked) is lower in “hERG current change (%, negative = inhibition) at 1uM” value: 4.71% for the first, 1.39% for the second.

Going from `O=C(CC(=O)NCCc1ccccc1)NCCc1ccccc1` to `COc1ccc(CC(=O)NC(c2ccccc2)c2ccccc2)cc1S(=O)(=O)N1CCOCC1`, the “hERG current change (%, negative = inhibition) at 1uM” value falls from 12.8% to 7.26%.

Compared with `COc1ccc(C(c2sc3ncnn3c2O)N2CC(C)OC(C)C2)cc1OC` (centres unmarked), `COc1ccc(NC(=O)COC(=O)CN2C(=O)C3CCCCC3C2=O)cc1OC` (centres unmarked) is higher in “hERG current change (%, negative = inhibition) at 1uM” value: 9.66% for the first, 17.2% for the second.

Compared with `C=CCN(CC=C)S(=O)(=O)c1ncn[nH]1`, `O=c1[nH]c2ccc(S(=O)(=O)NCCO)cc2[nH]1` is higher in “hERG current change (%, negative = inhibition) at 1uM” value: 13.4% for the first, 15.2% for the second.

Going from `O=[N+]([O-])c1ccc(C(O)CN2CCN(c3ccccc3)CC2)cc1` (centres unmarked) to `COc1cccc(N2CCN(Cc3nc(N)nc(N4CCCc5ccccc54)n3)CC2)c1`, the “hERG current change (%, negative = inhibition) at 1uM” value falls from -2.31% to -7.32%.

Going from `CC(=O)c1cc(CC=C(C)C)c(O)cc1O` to `CCOC(=O)c1c(C)n(CC(COC(C)=O)OC(C)=O)c2ccc(OC(C)=O)cc12` (centres unmarked), the “hERG current change (%, negative = inhibition) at 1uM” value falls from 3.38% to -14.9%.

Going from `CCCCN1CNC(=S)N(CCc2ccc(OCC)c(OCC)c2)C1` to `CCOc1ccc2nc(SCC(=O)N3CCCCCC3)c(C#N)cc2c1`, the “hERG current change (%, negative = inhibition) at 1uM” value falls from 13.5% to 6.04%.

Compared with `CC(=O)Nc1ccc(N2N=C(C)C(N=Nc3ccccc3)C2=O)cc1` (centres unmarked), `Cc1ccc(NC2=C(NC(=O)c3ccccc3)C(=O)c3ccccc3C2=O)cc1Cl` is higher in “hERG current change (%, negative = inhibition) at 1uM” value: -4.61% for the first, 1.79% for the second.

Compared with `CCOC(=O)c1cnc2c(C#N)c(C)nn2c1C`, `COc1ccccc1Nc1nc2nonc2[nH]c1=O` is lower in “hERG current change (%, negative = inhibition) at 1uM” value: 13.8% for the first, 12.5% for the second.

Compared with `O=C(O)c1cccc(N=Nc2c(O)[nH]c(=O)[nH]c2=O)c1`, `O=C(N/N=C/c1cccc([N+](=O)[O-])c1)c1ccc(Br)cc1` is higher in “hERG current change (%, negative = inhibition) at 1uM” value: -0.277% for the first, 9.25% for the second.

Going from `COc1ccc(C(=O)NN2CCOCC2)cc1[N+](=O)[O-]` to `COc1ccc(CNC(=O)Cn2c(=O)oc3cc(S(=O)(=O)N4CCCC4)ccc32)cc1`, the “hERG current change (%, negative = inhibition) at 1uM” value rises from 11.8% to 42.5%.

Going from `COc1ccccc1/C=C/C=N/NC(=O)CCC1C(=O)NN=C1C` (centres unmarked) to `O=C(N/N=C/C1=Cc2ccccc2OC1)c1ccncc1`, the “hERG current change (%, negative = inhibition) at 1uM” value falls from 13.7% to 8.93%.

Going from `NNC(=O)CSCc1nc(-c2ccc(Cl)cc2)cs1` to `O=C1CNC(=O)N1c1ccc(Cl)cc1`, the “hERG current change (%, negative = inhibition) at 1uM” value falls from 11.7% to 8.46%.

Compared with `Cc1cccc(-n2c(C)c(-c3ccccc3)[nH]c2=S)c1`, `[Br-].c1ccc(-c2cn(-c3ccccc3)c3[n+]2CCCS3)cc1` is lower in “hERG current change (%, negative = inhibition) at 1uM” value: 13.1% for the first, 10.8% for the second.

Going from `Cc1cc(N2CCN(c3ncccn3)CC2)nc2c(C)cccc12` to `Oc1ccc(Nc2ccnc3cc(Cl)ccc23)cc1`, the “hERG current change (%, negative = inhibition) at 1uM” value falls from 11.4% to 2.4%.

First: CC(Sc1cccc[n+]1[O-])c1ccccc1 (centres unmarked)
Second: CC[C@@H]1CC=C[C@H]2[C@H]1C(=O)N(Cc1ccccc1)[C@H]2c1ccoc1
The “hERG current change (%, negative = inhibition) at 1uM” value of the first is higher: 13.2% for the first, 6.79% for the second.

With `Cc1[nH]c2ccc(OCc3ccccc3)cc2c1CCN1C(=O)OC(C)(C)C1(C)O` (centres unmarked) the “hERG current change (%, negative = inhibition) at 1uM” value was 10.8%.
